Reference: the supplement of paper PMC12230231
± gives the standard deviation of the averaged measurements. Restriction of a single-cycle SIVsab GFP reporter by TRIM5α v1-loop variants in CRFK cells. Human variants: read share among cells still uninfected after two challenges over input, higher = gained restriction. Rhesus variants: share among infected cells over input, higher = lost restriction. Reporter dose not given per row. No active / inactive call per row; the paper calls a change when both replicates lie above its controls (mean + 2 SD of stop or wild-type variants, or the top frameshift score). Residues outside the varied loop are taken from Swiss-Prot. The paper reads the human single-substitution scores as noise; they and the rhesus combinations repeat poorly (rank correlation 0.3 to 0.4), indel scores repeat only for the top variants, rhesus substitutions well (0.9).

Test system: SIVsab (simian immunodeficiency virus of sabaeus monkeys), single-cycle GFP reporter, in CRFK cells
Assay: enrichment among uninfected cells over input (fold); higher = stronger restriction
Method: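 Pools of CRFK cells expressing variants of the TRIM5α v1 loop were challenged with the single-cycle reporter, sorted by GFP and sequenced; mean of two replicates.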

[1] = library: insertions and deletions

Sequence | enrichment [1] | enrichment (library: human / rhesus combinations)
MASGILVNVKEEVTCPICLELLTQPLSLDCGHSFCQACLTANHKKSMLDKGESSCPVCRISYQPENIRPNRHVANIVEKLREVKLSPEGQKVDHCARHGEKLLLFCQEDGKVICWLCERSQEHRGHHTFLTEEVAREYQVKLQAALEMLRQKQQEAEELEADIREEKASWKTQIQYDKTNVLADFEQLRDILDWEESNELQNLEKEEEDILKSLTNSETEMVQQTQSLRELISDLEHRLQGSVMELLQGVDGVIKRTENVTLKKPETFPKNQRRVFRAPDLKGMLEVFRELTDVRRYWVDVTVAPNNISCAVISEDKRQVSSPKPQIIYGGARGTRYQTFVNFNYCTGILGSQSITSGKHYWEVDVSKKTAWILGVCAGFQPDAMCNIEKNENYQPKYGYWVIGLEEGVKCSAFQDSSFHTPSVPFIVPLSVIICPDRVGVFLDYEACTVSFFNITNHGFLIYKFSHCSFSQPVFPYLNPRKCGVPMTLCSPSS [human TRIM5α, 1-codon duplication at 330] | 0.669 ± 0.48 | 
MASGILVNVKEEVTCPICLELLTQPLSLDCGHSFCQACLTANHKKSMLDKGESSCPVCRISYQPENIRPNRHVANIVEKLREVKLSPEGQKVDHCARHGEKLLLFCQEDGKVICWLCERSQEHRGHHTFLTEEVAREYQVKLQAALEMLRQKQQEAEELEADIREEKASWKTQIQYDKTNVLADFEQLRDILDWEESNELQNLEKEEEDILKSLTNSETEMVQQTQSLRELISDLEHRLQGSVMELLQGVDGVIKRTENVTLKKPETFPKNQRRVFRAPDLKGMLEVFRELTDVRRYWVDVTVAPNNISCAVISEDKRQVSSPKPQARGTRYQTFVNFNYCTGILGSQSITSGKHYWEVDVSKKTAWILGVCAGFQPDAMCNIEKNENYQPKYGYWVIGLEEGVKCSAFQDSSFHTPSVPFIVPLSVIICPDRVGVFLDYEACTVSFFNITNHGFLIYKFSHCSFSQPVFPYLNPRKCGVPMTLCSPSS [human TRIM5α, 4-codon deletion at 327] | 1.02 ± 0.48 | 
MASGILVNVKEEVTCPICLELLTQPLSLDCGHSFCQACLTANHKKSMLDKGESSCPVCRISYQPENIRPNRHVANIVEKLREVKLSPEGQKVDHCARHGEKLLLFCQEDGKVICWLCERSQEHRGHHTFLTEEVAREYQVKLQAALEMLRQKQQEAEELEADIREEKASWKTQIQYDKTNVLADFEQLRDILDWEESNELQNLEKEEEDILKSLTNSETEMVQQTQSLRELISDLEHRLQGSVMELLQGVDGVIKRTENVTLKKPETFPKNQRRVFRAPDLKGMLEVFRELTDVRRYWVDVTVAPNNISCAVISEDKRQVSSPKPQIIYGARGTRYQTFVNFNNYCTGILGSQSITSGKHYWEVDVSKKTAWILGVCAGFQPDAMCNIEKNENYQPKYGYWVIGLEEGVKCSAFQDSSFHTPSVPFIVPLSVIICPDRVGVFLDYEACTVSFFNITNHGFLIYKFSHCSFSQPVFPYLNPRKCGVPMTLCSPSS [human TRIM5α, 1-codon duplication at 343] | 0.55 ± 0.083 | 
MASGILVNVKEEVTCPICLELLTQPLSLDCGHSFCQACLTANHKKSMLDKGESSCPVCRISYQPENIRPNRHVANIVEKLREVKLSPEGQKVDHCARHGEKLLLFCQEDGKVICWLCERSQEHRGHHTFLTEEVAREYQVKLQAALEMLRQKQQEAEELEADIREEKASWKTQIQYDKTNVLADFEQLRDILDWEESNELQNLEKEEEDILKSLTNSETEMVQQTQSLRELISDLEHRLQGSVMELLQGVDGVIKRTENVTLKKPETFPKNQRRVFRAPDLKGMLEVFRELTDVRRYWVDVTVAPNNISCAVISEDKRQVSSPKPQIIYQAPGTRYTFQTFVNFNYCTGILGSQSITSGKHYWEVDVSKKTAWILGVCAGFQPDAMCNIEKNENYQPKYGYWVIGLEEGVKCSAFQDSSFHTPSVPFIVPLSVIICPDRVGVFLDYEACTVSFFNITNHGFLIYKFSHCSFSQPVFPYLNPRKCGVPMTLCSPSS [human TRIM5α, 330-340 = QAPGTRYTFQTFV] |  | 0.197 ± 0.047
